Measured values from patent US20040053370A1 (Eli Lilly, published 2004).

Target: GLP-1 receptor
Experiment: cell-based or functional assay

B1: Gly^8-Glu^22-GLP-1-CEx-Linker-IgG1 (Fc fusion)
chain: HGEGTFTSDVSSYLEEQAAKEFIAWLVKGRGSSGAPPPSGGGGSGGGGSGGGGSA[omitted - human IgG1 Fc]
**Q.** With B1 as the binder, how does the “In Vitro Activity (% of Val^8-GLP-1)” value read?
**A.** 150 % of Val^8-GLP-1

B2: Gly^8-Glu^22-GLP-1-CEx-Linker-IgG4 (Fc fusion)
chain: HGEGTFTSDVSSYLEEQAAKEFIAWLVKGRGSSGAPPPSGGGGSGGGGSGGGGSA[omitted - human IgG4 Fc]
**Q.** B2 was tested. Which “In Vitro Activity (% of Val^8-GLP-1)” value did it give?
**A.** 80 % of Val^8-GLP-1

B3: Val^8-Glu^22-GLP-1-CEx-IgG1 (Fc fusion)
chain: HVEGTFTSDVSSYLEEQAAKEFIAWLVKGRGSSGAPPPSA[omitted - human IgG1 Fc]
**Q.** How did the “In Vitro Activity (% of Val^8-GLP-1)” value turn out when B3 was run?
**A.** 29 % of Val^8-GLP-1

B4: Val^8-GLP-1-CEx-IgG1 (Fc fusion)
chain: HVEGTFTSDVSSYLEGQAAKEFIAWLVKGRGSSGAPPPSA[omitted - human IgG1 Fc]
**Q.** How did the “In Vitro Activity (% of Val^8-GLP-1)” value turn out when B4 was run?
**A.** 3.3 % of Val^8-GLP-1
